Data on 58 compounds can be found in article PMC4336329 (PLoS ONE, 2015).

Screen size: about 310,000 compounds; about 2,200 (0.71%) showed an effect of 50% or more. The effect is printed as a negative number. The list shows a part of the results.

The target of the assay is human ether-à-go-go-related gene (hERG) potassium channel (human, UniProt Q12809). Description: primary screen, population patch clamp on CHO cells stably expressing hERG.
human ether-à-go-go-related gene (hERG) potassium channel, sequence (Q12809 whole entry, looked up): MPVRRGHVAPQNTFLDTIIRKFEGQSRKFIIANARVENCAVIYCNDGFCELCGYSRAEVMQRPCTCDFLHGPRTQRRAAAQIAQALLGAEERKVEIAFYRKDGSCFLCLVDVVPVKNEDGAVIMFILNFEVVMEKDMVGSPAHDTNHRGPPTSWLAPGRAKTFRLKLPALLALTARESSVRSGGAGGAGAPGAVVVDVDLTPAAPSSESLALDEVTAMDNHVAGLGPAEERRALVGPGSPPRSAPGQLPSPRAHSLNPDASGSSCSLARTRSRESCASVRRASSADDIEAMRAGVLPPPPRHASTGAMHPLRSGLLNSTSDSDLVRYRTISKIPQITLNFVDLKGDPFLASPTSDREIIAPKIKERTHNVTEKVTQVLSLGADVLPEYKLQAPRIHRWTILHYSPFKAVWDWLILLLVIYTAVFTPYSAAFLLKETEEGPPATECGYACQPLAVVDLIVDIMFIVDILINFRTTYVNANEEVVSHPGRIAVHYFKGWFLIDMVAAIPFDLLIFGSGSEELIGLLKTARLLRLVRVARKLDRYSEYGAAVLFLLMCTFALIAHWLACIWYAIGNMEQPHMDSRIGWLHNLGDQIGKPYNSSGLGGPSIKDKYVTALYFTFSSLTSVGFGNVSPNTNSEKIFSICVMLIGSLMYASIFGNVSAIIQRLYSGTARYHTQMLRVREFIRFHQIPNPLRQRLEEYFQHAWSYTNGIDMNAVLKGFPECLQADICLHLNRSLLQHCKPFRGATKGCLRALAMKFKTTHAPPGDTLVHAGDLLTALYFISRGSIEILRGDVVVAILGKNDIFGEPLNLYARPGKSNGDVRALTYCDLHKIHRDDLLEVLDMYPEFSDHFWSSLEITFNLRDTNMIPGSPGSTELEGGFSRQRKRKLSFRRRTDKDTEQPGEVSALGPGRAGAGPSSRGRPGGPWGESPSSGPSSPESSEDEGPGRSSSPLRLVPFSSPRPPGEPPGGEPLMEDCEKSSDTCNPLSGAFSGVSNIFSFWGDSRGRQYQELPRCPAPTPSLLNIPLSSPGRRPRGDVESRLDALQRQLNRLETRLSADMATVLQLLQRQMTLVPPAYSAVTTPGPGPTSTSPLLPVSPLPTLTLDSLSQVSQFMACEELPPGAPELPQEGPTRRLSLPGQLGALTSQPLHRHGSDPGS
`O=C(O)c1oc2ccccc2c1CSCc1ccccc1`: the “hERG current change (%, negative = inhibition) at 1uM” value is given as 6.49%.
Under `CC1CCC(C(=O)NC(C(=O)NCc2cccnc2)C(C)C)CC1` (stereo not shown) stands 3.13%.
On to `CCOC(=O)N1CCN(c2nc3ccccc3nc2C(C#N)S(=O)(=O)c2ccc(C)cc2)CC1` (stereo not shown), for which the “hERG current change (%, negative = inhibition) at 1uM” value is on record as 5.08%.
The value for `CN(C)C(=O)C#Cc1ccccc1` was 11.4%; that for `CC1=CC(=C(C#N)C#N)C=C(C)N1Cc1ccccc1` was 7.05%; that for `COc1ccc(-c2nc(CS(=O)CC(=O)NC3CCCC(C)C3C)c(C)o2)cc1OC` (stereo not shown) was 14.1%.
The value for `CN(Cc1nccn1C)C(=O)c1cc(COc2cccc(C(F)(F)F)c2)on1` was 8.98%; that for `CC(=O)/C=C/c1ccccc1O` was 14.6%; that for `O=C1N/C(=C/c2ccc(N3CCOCC3)o2)C(=O)N1c1ccccc1` was 6.75%.
Under `CCC(C(N)=NCCc1ccc(OC)c(OC)c1)c1ccccc1.Cl` (stereo not shown) stands 2.38%; under `C/C(=N\NC(=O)C1CCCC1)c1ccc(Cl)cc1`, 9.87%.
As to `CCC1CCCCN1S(=O)(=O)c1ccc(S(=O)(=O)N2CCN(S(=O)(=O)CC)CC2)cc1` (stereo not shown), the “hERG current change (%, negative = inhibition) at 1uM” value came to 2.64%.
Under `COCCCNC(=S)N1CCN(c2nc(-c3ccc(F)cc3)cs2)CC1` stands 5.43%.
Under `CC(=O)C1=C(C)NC(=O)NC1c1cccc([N+](=O)[O-])c1O` (stereo not shown) stands 29.9%.
For the compound `CC1CCCCC1NC(=O)C1CCC(CNc2c(N3CCCCC3)c(=O)c2=O)CC1` (stereo not shown), the “hERG current change (%, negative = inhibition) at 1uM” value is 16.8%.
The value for `CCOC(=O)C1CCN(C(=O)c2cc(C)n(C(C)(C)C)n2)CC1` was 13%.
Turning to `COC(=O)[C@H](CCSC)NC(=O)NCc1ccc(S(N)(=O)=O)cc1`, the “hERG current change (%, negative = inhibition) at 1uM” value is recorded as -0.982%.
The value for `O=C(Nc1ccc(-c2ccco2)cc1)C1CCCN(Cc2ccc(CO)o2)C1` (stereo not shown) was 2.15%.
The value for `C/C(=N\NC(=O)c1nnn(-c2nonc2N)c1-c1ccc2c(c1)OCO2)c1ccc(F)cc1` was 13.2%; that for `O=C1CC(c2ccc(O)c(O)c2)Oc2cc(O)cc(O)c21` (stereo not shown) was 5.31%; that for `Cc1cc2oc(=O)cc(CN3CCOCC3)c2cc1C` was 2.35%.
`CCN(CC)S(=O)(=O)c1ccc(C(=O)Nn2cnnc2)cc1`: the “hERG current change (%, negative = inhibition) at 1uM” value was determined as 10.5%.
The value for `COCCNC(=O)CN(c1ccccc1OC)S(C)(=O)=O` was 7.99%.
The value for `CCCCCCn1c(O)c(C=NC2CCCCC2N)c(=O)[nH]c1=O` (stereo not shown) was 12.2%; that for `c1ccc2c(c1)ncn2-c1ccc(-c2ccnc(-c3ccncc3)n2)cc1` was 10.8%; that for `O=C(Nc1ccc(N2CCN(C(=O)c3ccc(Cl)cc3)CC2)cc1)c1cc2ccccc2o1` was -1.08%.
The value for `CC(=O)Nc1ccc(-c2ccc3nnc(C)n3n2)cc1` was 11.4%; that for `O=C(NC1CCCCC1)[C@H](CSCc1ccccc1)N1Cc2ccccc2C1=O` was -41.6%; that for `CCN(CC)c1ccc(NC(=O)CN2C(=O)CSc3ncccc32)c(C)c1` was 4.2%.
In the case of `O=C(Cc1c(F)cccc1Cl)N1CCCC1`, the “hERG current change (%, negative = inhibition) at 1uM” value was 17.5%.
The value for `Cc1ccc(Nc2nc(-c3sc(C)nc3C)cs2)cc1` was 14.6%; that for `O=C(c1ccccc1)c1ccc2nc[nH]c2c1` was 9.84%; that for `O=C(Cc1ccc(S(=O)(=O)N2CCOCC2)s1)Nc1nc2c(s1)CCCC2` was 5.04%.
The value for `COc1ccc(-c2nnc(-c3ccccc3O)o2)cc1` was 4.22%; that for `CCOC(=O)c1c(NC(=O)CN2CCCc3ccccc32)sc(C)c1C` was 12.1%.
As for `S=c1[nH]nc(-c2ccc3ccccc3n2)n1-c1cc(Cl)cc(Cl)c1`, the “hERG current change (%, negative = inhibition) at 1uM” value is on record as 3.9%.
The value for `O=C(NC1CCCCC1)C1Cc2ccccc2CN1S(=O)(=O)c1ccc(F)cc1` (stereo not shown) was 0.72%; that for `CCC1=NN(C(=O)Cc2ccccc2)C(O)(c2ccncc2)C1` (stereo not shown) was 15.1%; that for `NS(=O)(=O)c1ccc(NC(=O)c2ccc(CNS(=O)(=O)c3cc(C(F)(F)F)ccc3Cl)cc2)cc1` was 10.3%.
The value for `COc1ccc(/C(C)=N/NC(=S)NCCc2ccccc2)c(O)c1` was 16.3%; that for `O=C(/C=C/c1ccc([N+](=O)[O-])cc1)NCc1ccc2c(c1)OCO2` was 7.18%.
The value for `CC(=O)N/C(=C\c1ccc(C)cc1)C(=O)O` was 15.4%; that for `CC1CCN(C(=O)Cn2ncc3c4ccccc4n(C)c3c2=O)CC1` was 12.8%; that for `NNC(=O)Cc1cn(-c2ncc(C(F)(F)F)cc2Cl)c2ccccc12` was 3.78%.
As for `O=c1ccc(Cl)n[nH]1`, the “hERG current change (%, negative = inhibition) at 1uM” value amounted to 12.6%.
The value for `CC(=O)N1CCC(CCCC2CCN(C(C)=O)CC2)CC1` was 7.19%; that for `C/C(=N\NC(=O)c1cccc(S(=O)(=O)Nc2ccccc2Cl)c1)c1ccco1` was 7.13%.
As for `Cc1ccc(S(=O)(=O)N2CC(O)CC2C(=O)NCc2ccc3c(c2)OCO3)cc1` (stereo not shown), the “hERG current change (%, negative = inhibition) at 1uM” value stood at 8.6%.
Consider `CN(c1ccccc1)S(=O)(=O)c1ccc(Cl)c(C(=O)NC2=NCCS2)c1`, for which the “hERG current change (%, negative = inhibition) at 1uM” value was 15.1%.
In the case of `CN(C)C(CNC(=O)CCc1nc2ccccc2s1)c1ccccc1` (stereo not shown), the “hERG current change (%, negative = inhibition) at 1uM” value was 15.4%.
The value for `CC(C)c1ccc(NC(=O)CCCN2C(=S)NC(C)(C)CC2C)cc1` (stereo not shown) was 2.22%.
The value for `O=[N+]([O-])NC1=NCN(Cc2ccco2)CN1Cc1ccco1` was 5.75%; that for `Cc1cc2c(c(=O)n1Cc1ccccn1)C(C(C)C)C(C#N)=C(N)O2` (stereo not shown) was 0.864%; that for `O=C(O)CCC(=O)N1CCc2cc(S(=O)(=O)NC3CCCC3)ccc21` was 15%.
The value for `Cc1ccccc1NC(=O)Cc1nc(CSc2nnc(-c3ccc4c(c3)OCO4)o2)cs1` was 14%; that for `CCS(=O)(=O)N1CCC(C(=O)NCc2cccs2)CC1` was 5.4%.
For `O=C(Nc1ncc2c(n1)CC(c1ccco1)CC2=O)c1ccccc1` (stereo not shown), the “hERG current change (%, negative = inhibition) at 1uM” value was 1.14%.
With `O=C(O)c1cc(Cl)c(Cl)cc1C(=O)N(Cc1ccccc1)Cc1ccccc1`, the “hERG current change (%, negative = inhibition) at 1uM” value came to 15.8%.
